Laboratory results reported in the supplement of paper PMC11181314.
The other results are listed elsewhere or left out. Single values of this set are uncertain.

test system: U2OS; assay: Cell Painting induction (percent of morphological features significantly changed vs DMSO); higher = stronger morphological change; conditions: 10 µM; 20 h; run: primary screen (compounds selected for induction >=10%)
Protocol: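 Cell Painting assay in U2OS cells: compounds at 10 µM for 20 h, six dyes, 579 robust CellProfiler features as Z-scores vs DMSO median (MAD). Induction is the % of significantly changed features (active if ≥5%); relative cell count is in % of DMSO. The primary run holds DCM compounds preselected for induction ≥10%; the confirmation repeat defines active compounds (370 of 549). Replicate agreement is low, attributed to precipitation.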
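Further: stains mark DNA, RNA and nucleoli, ER, actin, Golgi, plasma membrane and mitochondria, read by high-content imaging, with DMSO controls at matching solvent concentration.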

Structure (SMILES) | Cell Painting induction [%]
Cc1sc2ncn(CC(=O)NCCCN3CC(C)CC(C)C3)c(=O)c2c1S(=O)(=O)N1CC(C)CC(C)C1 (configuration not stated) | 57.9
COc1ccc(S(=O)(=O)NC2CC(C)(C)NC(C)(C)C2)c2ccccc12 | 31.6
CCOc1cc(CN2CCN(Cc3ccc(Cl)cc3)CC2)ccc1OC | 33.2
Cn1nc(C(=O)NCc2cccc(Cl)c2)c2c1-c1ccccc1S(=O)(=O)C2 | 27.5
Cc1ccc(CCNC(=O)CN(c2cc(C)cc(C)c2)S(=O)(=O)c2c(C)noc2C)cc1 | 18.1
CN(C1CCCCC1)S(=O)(=O)c1ccc2c(c1)c(=O)c(C(=O)N1CCc3ccccc3C1)cn2C | 27.3
COc1cccc(-c2cc(C(=O)Nc3cccnc3)c3ccccc3n2)c1 | 20
CCOC(=O)c1ccc(NC(=O)C2CCN(S(=O)(=O)c3ccc4c(c3)CC(C)N4C(C)=O)CC2)cc1 (configuration not stated) | 39.7
CNC(=S)N1CCc2cc(OC)c(OC)cc2C1COc1ccc(F)cc1 (configuration not stated) | 14.7
CCc1nc(SCC(=O)Nc2ccc(F)cc2)c2c(=O)n(C)c(=O)n(C)c2n1 | 21.6
Cc1ccc(-c2nn3c(C)nnc3s2)cc1NC(=O)c1ccc(OC(C)C)cc1 | 22.8
Cc1ccc(N2CC(C(=O)N3CCC(C(=O)Nc4cccc(Br)c4)CC3)CC2=O)cc1 (configuration not stated) | 11.4
Cc1cccc(N2CCN(C(=O)c3ccc(CNc4c(N5CCC(C)CC5)c(=O)c4=O)cc3)CC2)c1C | 17.3
Cc1ccc(C)c(CN2CCC(CNC(=O)CCc3nnc4ccc(N5CCC(C)CC5)nn34)CC2)c1 | 47.3
CCc1ccc(-c2cc(C)no2)cc1S(=O)(=O)Nc1cccc(CN2CCCC2)c1 | 29.5
CC(C)N(CCNC(=O)c1ccc(CS(=O)(=O)c2c(Cl)cccc2Cl)o1)Cc1ccccc1 | 28.7
CC1=C(C(=O)OCC2CCCO2)C(c2coc3ccccc3c2=O)C2=C(O)CC(C)(C)CC2=N1 (configuration not stated) | 10.4
COCCn1c(=O)[nH]c2cc(C(=O)N3CCN(c4ccc(Cl)cc4)CC3)ccc2c1=O | 21.2
Cc1ccc(NC(=N)Nc2nc(O)cc(CSc3ccc(C)cc3)n2)cc1 | 41.5

Structure (SMILES) | Cell Painting induction [%]
Cc1ccc(CNC(=O)c2cnn3c(C(F)(F)F)cc(-c4ccccc4)nc23)cc1 | 18
Cc1ccc2c(C)nc(Nc3nc(=O)cc(CSc4nc5ccccc5s4)[nH]3)nc2c1 | 20.9
CCCCSCCCNC(=O)c1cn(C)c2ccc(S(=O)(=O)N3CCCC3)cc2c1=O | 15.7
O=C(C1CCCN(S(=O)(=O)c2ccc(Br)s2)C1)N1CCN(c2ccccc2)CC1 (configuration not stated) | 11.2
O=C(CCS(=O)(=O)c1cccs1)Nc1ccc(C(=O)NC2CCN(Cc3ccccc3)CC2)cc1 | 12.3
Cc1ccc(Sc2cc(C(=O)NCCN(C)C)c3ccccc3n2)cc1 | 41.1
CCOc1c(Br)cc(C2CC(=O)Nc3cc(OC)c(OC)cc32)cc1OC (configuration not stated) | 15
COc1ccc(N2CCN(C(=O)c3sc4ncn(CC(=O)N5CCCCC5C)c(=O)c4c3C)CC2)cc1 (configuration not stated) | 13.5
Cc1cc(-c2ccc(C)c(S(=O)(=O)NCCCN(Cc3ccccc3)C(C)C)c2)on1 | 36.1
COc1ccccc1CNC(=O)c1ccc2c(=O)n3c(nc2c1)CCCCC3 | 11.1
COc1ccc(CN2CCN(C(=O)c3ccc(CNS(=O)(=O)c4ccc(C)cc4)cc3)CC2)c(OC)c1OC | 35.8
O=C(c1ccc2c(c1)N(Cc1cccc(Cl)c1)C(=O)c1ccccc1S2=O)N1Cc2ccccc2C1 (configuration not stated) | 15
COc1ccc(-c2cn3c(C)c(C(=O)N4CCN(c5ccc(F)cc5)CC4)sc3n2)cc1 | 27.3
CCOC(=O)Cn1c(CN(Cc2ccccc2)Cc2ccccc2)nc2c1c(=O)[nH]c(=O)n2C | 21.2
CCN(Cc1ccccc1)C(=O)Cn1c(=O)n(-c2ccc(OC)cc2OC)c(=O)c2c(C)c(C)sc21 | 17.6
CN(C)S(=O)(=O)c1ccc2c(c1)C(=NNC(N)=O)c1cc(S(=O)(=O)N(C)C)ccc1-2 | 10.5
O=S(=O)(c1ccc2nc(N3CCN(c4ccccc4F)CC3)ccc2c1)N1CCCCC1 | 16.4
CC(=O)Nc1ccc(NC(=O)C2CCC(CNS(=O)(=O)c3cccc4nsnc34)CC2)cc1 (configuration not stated) | 13.8
